Results reported in paper PMC10865817.
Results are given in words; binding and its absence hold for the method and conditions named. Binding seen in cells or lysates may run through a third protein. Some entries that bind do so weakly or less than the wild type. For some assays here: Tags and fused reporters may be left off the sequences shown. Values belong to the molecule of their own block, whether it stands above or below them.

Experiments:
[1] = target: T1, Halo-V5-YTHDF2 (full length, 1-579) (human) (UniProt Q9Y5A9); assay: co-IP; HEK293T cells co-transfected; V5-tagged YTHDF protein immunoprecipitated (anti-V5 magnetic beads in Fig. 1B, antibodies against V5 tag in Fig. 8C; beads of Fig. 2B not stated), PIAS1 detected by Western blot; with or without SUMO2 co-transfection in Fig. 1B
T1 sequence: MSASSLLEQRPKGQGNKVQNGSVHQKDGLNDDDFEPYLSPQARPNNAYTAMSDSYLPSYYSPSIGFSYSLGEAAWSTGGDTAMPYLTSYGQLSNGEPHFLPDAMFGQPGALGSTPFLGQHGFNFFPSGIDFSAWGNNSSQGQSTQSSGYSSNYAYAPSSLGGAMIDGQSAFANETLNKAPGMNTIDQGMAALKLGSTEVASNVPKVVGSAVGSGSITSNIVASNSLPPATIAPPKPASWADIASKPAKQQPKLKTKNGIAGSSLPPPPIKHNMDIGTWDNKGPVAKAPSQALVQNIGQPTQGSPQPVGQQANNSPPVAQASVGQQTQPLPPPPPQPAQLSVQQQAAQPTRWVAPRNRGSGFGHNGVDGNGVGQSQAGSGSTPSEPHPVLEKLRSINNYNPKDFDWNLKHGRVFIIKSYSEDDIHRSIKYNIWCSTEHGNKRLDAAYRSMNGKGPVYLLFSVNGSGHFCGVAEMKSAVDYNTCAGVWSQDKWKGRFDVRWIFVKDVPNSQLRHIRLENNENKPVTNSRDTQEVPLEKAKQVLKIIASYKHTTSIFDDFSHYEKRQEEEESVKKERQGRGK

Halo-V5-YTHDF1 (human) = target: T2, Halo-V5-YTHDF1 (human) (UniProt Q9BYJ9); assay: as above
T2 sequence: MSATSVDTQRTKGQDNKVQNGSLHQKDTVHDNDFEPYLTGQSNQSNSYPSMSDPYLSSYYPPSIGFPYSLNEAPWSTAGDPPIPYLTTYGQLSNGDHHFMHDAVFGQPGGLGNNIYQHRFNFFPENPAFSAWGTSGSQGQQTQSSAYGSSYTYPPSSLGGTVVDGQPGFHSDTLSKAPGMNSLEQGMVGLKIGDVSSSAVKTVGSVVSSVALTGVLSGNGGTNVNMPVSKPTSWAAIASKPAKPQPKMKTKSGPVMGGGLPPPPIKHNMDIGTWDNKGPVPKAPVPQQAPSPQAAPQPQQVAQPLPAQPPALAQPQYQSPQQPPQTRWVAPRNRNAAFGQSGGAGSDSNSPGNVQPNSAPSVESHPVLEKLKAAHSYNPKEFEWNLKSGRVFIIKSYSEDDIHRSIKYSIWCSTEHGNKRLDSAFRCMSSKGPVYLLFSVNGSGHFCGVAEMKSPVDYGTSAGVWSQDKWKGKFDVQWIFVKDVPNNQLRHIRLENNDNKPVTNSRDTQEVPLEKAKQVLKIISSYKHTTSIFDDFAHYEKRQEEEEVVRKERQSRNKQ

Halo-V5-YTHDF3 (human) = target: T3, Halo-V5-YTHDF3 (human) (UniProt Q7Z739); assay: as above
T3 sequence: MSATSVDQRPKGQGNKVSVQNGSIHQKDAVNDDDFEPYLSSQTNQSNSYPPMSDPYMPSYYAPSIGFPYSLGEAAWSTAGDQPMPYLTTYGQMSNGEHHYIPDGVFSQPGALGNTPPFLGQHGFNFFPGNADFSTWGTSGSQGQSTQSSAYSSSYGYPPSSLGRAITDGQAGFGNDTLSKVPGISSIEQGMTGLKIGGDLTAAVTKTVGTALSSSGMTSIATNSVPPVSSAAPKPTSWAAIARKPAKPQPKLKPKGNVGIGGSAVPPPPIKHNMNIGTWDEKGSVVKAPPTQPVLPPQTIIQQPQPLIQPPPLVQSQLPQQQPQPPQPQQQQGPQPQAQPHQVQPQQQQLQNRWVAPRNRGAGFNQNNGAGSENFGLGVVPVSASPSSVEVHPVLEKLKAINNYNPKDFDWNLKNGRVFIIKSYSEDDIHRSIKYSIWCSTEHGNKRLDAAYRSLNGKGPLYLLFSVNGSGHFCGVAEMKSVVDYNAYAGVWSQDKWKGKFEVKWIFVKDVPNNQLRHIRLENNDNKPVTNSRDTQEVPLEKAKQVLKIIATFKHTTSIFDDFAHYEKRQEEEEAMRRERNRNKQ

[2] = target: T4, YTHDF2 (endogenous, Akata (EBV+) cells) (human (endogenous in Akata)) (UniProt Q9Y5A9); assay: proximity ligation; Akata (EBV+) cells fixed with cold methanol, permeabilised with 0.5% Triton X-100; Duolink in situ PLA with mouse anti-YTHDF2 and rabbit anti-PIAS1 antibodies; PBS instead of antibodies as control
T4 sequence: T1 sequence

HA-YTHDF2 (human) = target: T5, HA-YTHDF2 (human) (UniProt Q9Y5A9); assay: co-IP; HEK293T cells co-transfected with HA-YTHDF2 and truncated V5-PIAS1 or Halo-V5-PIAS1; YTHDF2 immunoprecipitated with anti-HA antibody-conjugated beads, Western blot
T5 sequence: T1 sequence

[3] = target: T6, Halo-V5-YTHDF2 (aa 368-579) (human) (UniProt Q9Y5A9); assay: co-IP; HEK293T cells co-transfected; V5-tagged YTHDF protein immunoprecipitated (anti-V5 magnetic beads in Fig. 1B, antibodies against V5 tag in Fig. 8C; beads of Fig. 2B not stated), PIAS1 detected by Western blot; with or without SUMO2 co-transfection in Fig. 1B
T6 sequence: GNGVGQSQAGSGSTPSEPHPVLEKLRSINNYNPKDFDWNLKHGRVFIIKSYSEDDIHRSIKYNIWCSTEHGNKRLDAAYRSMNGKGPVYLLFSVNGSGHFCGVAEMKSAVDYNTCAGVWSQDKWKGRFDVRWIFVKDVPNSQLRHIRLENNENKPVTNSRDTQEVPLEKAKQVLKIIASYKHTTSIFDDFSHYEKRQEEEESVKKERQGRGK

[4] = target: T7, Halo-V5-YTHDF2 (aa 167-579) (human) (UniProt Q9Y5A9); assay: as above
T7 sequence: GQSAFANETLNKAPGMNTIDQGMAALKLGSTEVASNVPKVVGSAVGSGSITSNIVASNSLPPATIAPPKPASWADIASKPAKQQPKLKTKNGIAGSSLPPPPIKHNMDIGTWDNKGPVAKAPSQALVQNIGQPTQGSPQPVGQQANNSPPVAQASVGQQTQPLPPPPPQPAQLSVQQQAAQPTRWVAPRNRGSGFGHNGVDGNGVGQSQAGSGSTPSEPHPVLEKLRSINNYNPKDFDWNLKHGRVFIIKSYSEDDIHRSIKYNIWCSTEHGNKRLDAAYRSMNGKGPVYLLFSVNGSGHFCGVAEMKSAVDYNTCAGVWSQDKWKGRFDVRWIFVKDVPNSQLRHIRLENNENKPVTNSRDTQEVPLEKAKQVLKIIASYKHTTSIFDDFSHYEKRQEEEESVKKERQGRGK

[5] = target: T8, Halo-V5-YTHDF2 (aa 1-166) (human) (UniProt Q9Y5A9); assay: as above
T8 sequence: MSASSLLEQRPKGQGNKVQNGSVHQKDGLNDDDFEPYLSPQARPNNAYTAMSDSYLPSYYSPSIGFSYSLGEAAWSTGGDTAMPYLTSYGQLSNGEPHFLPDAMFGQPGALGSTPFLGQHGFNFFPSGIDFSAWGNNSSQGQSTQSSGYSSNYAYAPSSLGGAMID

[6] = target: T9, Halo-V5-YTHDF2 (aa 167-367) (human) (UniProt Q9Y5A9); assay: as above
T9 sequence: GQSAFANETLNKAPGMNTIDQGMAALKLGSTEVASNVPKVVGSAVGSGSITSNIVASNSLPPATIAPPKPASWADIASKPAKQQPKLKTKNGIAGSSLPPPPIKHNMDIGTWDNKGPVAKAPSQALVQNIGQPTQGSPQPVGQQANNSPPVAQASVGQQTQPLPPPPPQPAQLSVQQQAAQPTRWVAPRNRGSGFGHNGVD

[7] = target: T10, Halo-V5-YTHDF2 (aa 1-367) (human) (UniProt Q9Y5A9); assay: as above
T10 sequence: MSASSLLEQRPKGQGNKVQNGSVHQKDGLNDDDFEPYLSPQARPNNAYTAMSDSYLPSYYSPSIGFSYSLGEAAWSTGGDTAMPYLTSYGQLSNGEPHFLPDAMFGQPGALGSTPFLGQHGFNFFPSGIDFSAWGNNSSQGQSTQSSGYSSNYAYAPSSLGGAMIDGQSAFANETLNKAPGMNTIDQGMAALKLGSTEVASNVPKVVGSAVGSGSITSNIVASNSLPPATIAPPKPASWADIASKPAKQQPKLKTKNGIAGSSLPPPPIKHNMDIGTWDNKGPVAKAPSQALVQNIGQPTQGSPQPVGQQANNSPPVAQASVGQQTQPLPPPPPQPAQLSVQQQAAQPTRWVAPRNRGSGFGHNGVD

Molecule: PIAS1 (endogenous, Akata (EBV+) cells) (from UniProt O75925 1-651)
binding [2]: binds

Molecule: V5-PIAS1 (aa 101-433) (from UniProt O75925 101-433) (domain or fragment)
binding (HA-YTHDF2 (human)): binds

Molecule: full-length PIAS1 (construct of Fig. 2B, tag not stated) (from UniProt O75925 1-651)
binding [1]: binds
binding [3]: binds
binding [4]: binds
binding [5]: binds
binding [6]: no binding
binding [7]: binds

B2: V5-PIAS1 (aa 409-651) (domain or fragment, UniProt O75925 409-651)
chain: EDGTWAPMRSKKEVQEVSASYNGVDGCLSSTLEHQVASHHQSSNKNKKVEVIDLTIDSSSDEEEEEPSAKRTCPSLSPTSPLNNKGILSLPHQASPVSRTPSLPAVDTSYINTSLIQDYRHPFHMTPMPYDLQGLDFFPFLSGDNQHYNTSLLAAAAAAVSDDQDLLHSSRFFPYTSSQMFLDQLSAGGSTSLPTTNGSSSGSNSSLVSSNSLRESHSHTVTNRSSTDTASIFGIIPDIISLD
binding (HA-YTHDF2 (human)): no binding

B3: Halo-V5-PIAS1 (aa 1-100) (domain or fragment, UniProt O75925 1-100)
chain: MADSAELKQMVMSLRVSELQVLLGYAGRNKHGRKHELLTKALHLLKAGCSPAVQMKIKELYRRRFPQKIMTPADLSIPNVHSSPMPATLSPSTIPQLTYD
binding (HA-YTHDF2 (human)): no binding

Second part, the molecule after the results:

binding [1]: binds
binding (Halo-V5-YTHDF1 (human)): binds
binding (Halo-V5-YTHDF3 (human)): binds
Molecule: HA-PIAS1 (from UniProt O75925 1-651)

binding [1]: binds
Molecule: Halo-PIAS1 (from UniProt O75925 1-651)

binding (HA-YTHDF2 (human)): binds
Molecule: V5-PIAS1 (aa 1-415) (from UniProt O75925 1-415) (domain or fragment)

binding (HA-YTHDF2 (human)): binds
Molecule: V5-PIAS1 (aa 1-433) (from UniProt O75925 1-433) (domain or fragment)

binding (HA-YTHDF2 (human)): binds
B1: V5-PIAS1 (aa 1-205) (domain or fragment, UniProt O75925 1-205)
chain: MADSAELKQMVMSLRVSELQVLLGYAGRNKHGRKHELLTKALHLLKAGCSPAVQMKIKELYRRRFPQKIMTPADLSIPNVHSSPMPATLSPSTIPQLTYDGHPASSPLLPVSLLGPKHELELPHLTSALHPVHPDIKLQKLPFYDLLDELIKPTSLASDNSQRFRETCFAFALTPQQVQQISSSMDISGTKCDFTVQVQLRFCLS
